In the supplement of paper PMC12217912:
The other results are listed elsewhere or left out. The full chains were built here from the parent and the listed change. Values near 0.05 are background.

B1: TEV protease; numbered along this chain (parent)
chain: MGESLFKGPRDYNPISSSICHLTNESDGHTTSLYGIGFGPFIITNKHLFRRNNGTLVVQSLHGVFKVKDTTTLQQHLVDGRDMIIIRMPKDFPPFPQKLKFREPQREERICLVTTNFQTKSMSSMVSDTSCTFPSGDGIFWKHWIQTKDGQCGSPLVSTRDGFIVGIHSASNFTNTNNYFTSVPKNFMELLTNQEAQQWVSGWRLNADSVLWGGHKVFMVKPEEPFQPVKEATQL

Variants of: B1
Assay: raw area under fraction-flipped curve 0-4 h after induction (AUC4h, not background-subtracted), DNA-recorder readout of cleavage of the substrate (dimensionless); higher = more cleavage of the substrate by the protease variant
Details: temperature: 34 °C; time window: 0-4 h after rhamnose induction
Description: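 In vivo DNA recorder in E. coli TOP10(DE3) ΔrhaA at 34 °C. Each TEVp single-site mutant (parent TEVp 0) is paired with a single-site variant of the 7-mer TEVs (canonical ENLYFQ|S). The substrate sits between flexible linkers in a Bxb1-sfGFP-TEVs-SsrA fusion, so cleavage stabilises Bxb1 and speeds flipping of a recombination array, read by NGS. The value is the raw area under the fraction-flipped curve over 0-4 h after rhamnose induction (AUC4h), with ≥20 reads per time point. It is not background-subtracted; inactive controls average about 0.047.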
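Also: Bxb1 expression induced with 0.2% (w/v) L-rhamnose at OD600 near 0.5, cultures sampled hourly, flipped fraction per protease–substrate barcode pair counted by paired-end Illumina sequencing.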

| Variant | area with substrate ENLCFQS | area with substrate ENLDFQS | area with substrate ENLEFQS | area with substrate ENLFFQS | area with substrate ENLGFQS | area with substrate ENLHFQS | area with substrate ENLIFQS | area with substrate ENLKFQS | area with substrate ENLLFQS | area with substrate ENLMFQS | area with substrate ENLNFQS | area with substrate ENLPFQS | area with substrate ENLQFQS | area with substrate ENLRFQS | area with substrate ENLSFQS | area with substrate ENLTFQS | area with substrate ENLVFQS | area with substrate ENLWFQS | area with substrate ENLAFQS |
| --- | --- | --- | --- | --- | --- | --- | --- | --- | --- | --- | --- | --- | --- | --- | --- | --- | --- | --- | --- |
| N45T | 0.0527 | 0.0521 | 0.0655 | 0.0516 | 0.068 | 0.0574 | 0.0626 | 0.0593 | 0.066 | 0.0628 | 0.0646 | 0.0643 | 0.0494 | 0.0625 | 0.0624 | 0.0653 | 0.0506 | 0.0059 | – |
| Q234W | – | 0.0546 | 0.0613 | 0.084 | – | 0.0442 | 0.0661 | 0.0541 | – | – | 0.0636 | 0.0667 | 0.0713 | – | 0.0544 | – | – | 0.065 | 0.0659 |
| V126Y | 0.0744 | 0.0591 | 0.0786 | 0.0848 | – | 0.0738 | 0.0834 | 0.0904 | – | 0.0668 | 0.0748 | 0.0453 | 0.0793 | – | 0.0668 | – | 0.078 | – | – |
| K98A | 0.0794 | 0.0598 | – | 0.0861 | 0.0677 | 0.042 | 0.0751 | 0.0754 | 0.073 | – | 0.0657 | 0.0647 | 0.0831 | 0.0817 | 0.0599 | – | 0.0791 | 0.071 | – |
| N52V | 0.0546 | 0.0664 | 0.0957 | 0.0707 | – | 0.075 | 0.0602 | 0.0556 | 0.0631 | – | 0.0633 | 0.0562 | 0.0571 | 0.0643 | 0.0532 | – | 0.0517 | 0.0576 | – |
| G54Q | 0.0606 | 0.0618 | 0.0632 | 0.0703 | – | 0.0645 | 0.0671 | 0.0639 | 0.0506 | 0.0739 | 0.0757 | 0.0615 | 0.0924 | 0.0629 | 0.0583 | – | – | 0.058 | – |
| R106A | 0.0749 | 0.0628 | 0.0787 | 0.0967 | 0.0635 | 0.0811 | – | 0.0754 | – | – | 0.0429 | 0.0643 | 0.0805 | – | 0.0908 | – | – | 0.0728 | – |
| S17A | 0.0694 | 0.0669 | 0.0774 | 0.0862 | – | 0.0668 | – | 0.0941 | 0.0673 | – | 0.0737 | – | – | 0.0748 | 0.0611 | – | – | 0.0662 | – |
| E25W | 0.0528 | 0.0622 | 0.0643 | 0.0813 | – | 0.0704 | 0.0791 | 0.085 | 0.074 | 0.0665 | 0.0552 | 0.0655 | – | 0.0696 | 0.0631 | – | 0.0711 | 0.0837 | – |
| P93M | 0.0691 | 0.0553 | – | 0.0762 | – | 0.0608 | 0.0782 | 0.0722 | 0.041 | 0.11 | 0.0847 | – | 0.0417 | – | 0.0568 | – | 0.102 | – | – |
| V113G | 0.0702 | – | 0.0672 | 0.0754 | – | 0.0634 | 0.0877 | – | – | – | 0.0603 | 0.0506 | – | – | – | – | – | – | – |
| F49M | 0.0598 | 0.0603 | 0.0608 | 0.0683 | 0.0525 | 0.0673 | 0.0578 | 0.0686 | 0.0542 | 0.0627 | 0.0569 | 0.0618 | 0.0611 | – | – | 0.0576 | 0.0742 | 0.055 | – |
| F226N | 0.0726 | 0.0649 | – | 0.0918 | – | – | – | 0.0745 | 0.0733 | – | 0.0733 | 0.0554 | 0.0727 | – | 0.0557 | – | 0.0927 | 0.0716 | 0.0653 |
| F226H | 0.0697 | 0.0664 | 0.0508 | 0.0935 | 0.107 | 0.0825 | – | 0.0872 | 0.0821 | 0.0719 | 0.0686 | 0.0329 | – | 0.0779 | 0.0537 | – | – | 0.078 | 0.0648 |
| N13I | 0.0771 | 0.0641 | 0.06 | 0.072 | – | 0.0686 | – | 0.0785 | 0.0698 | 0.0632 | 0.0658 | – | – | 0.0767 | 0.0654 | 0.0777 | – | 0.0835 | – |
| E223I | 0.0705 | 0.0637 | 0.0637 | 0.0811 | – | 0.0359 | – | 0.0699 | 0.0603 | – | 0.0601 | – | 0.0588 | – | – | – | 0.103 | – | 0.0685 |
| W141P | 0.0513 | 0.061 | 0.054 | 0.056 | – | 0.0582 | – | 0.0578 | – | – | 0.0492 | 0.0575 | – | 0.039 | 0.0595 | – | 0.0521 | 0.0595 | – |
| P155D | 0.0441 | 0.0518 | 0.0596 | 0.0524 | 0.0497 | 0.0578 | 0.0472 | 0.0499 | 0.0634 | – | 0.0516 | 0.0532 | 0.0465 | 0.0538 | 0.0464 | – | 0.0516 | 0.0605 | – |
| R109Q | 0.0805 | 0.0503 | 0.0771 | 0.0813 | – | 0.0905 | 0.0737 | 0.063 | 0.0694 | 0.0652 | 0.0666 | 0.0419 | 0.0463 | 0.0685 | 0.0593 | 0.0649 | 0.0781 | 0.0682 | – |
| P222D | 0.063 | 0.0706 | – | 0.0745 | – | – | 0.0824 | 0.0707 | – | – | 0.074 | 0.0588 | 0.0619 | 0.0741 | – | – | 0.0614 | – | 0.0882 |
| Q59I | 0.0674 | 0.0557 | – | 0.0955 | 0.0277 | 0.0708 | 0.0894 | 0.0824 | 0.0757 | 0.0641 | 0.0841 | 0.066 | – | 0.0639 | 0.0576 | – | – | 0.0731 | – |
| F140G | 0.054 | 0.0871 | 0.102 | 0.0832 | 0.0647 | 0.065 | 0.0431 | – | 0.0592 | – | 0.0592 | 0.0478 | 0.0618 | 0.0553 | 0.061 | – | – | – | – |
| K142I | 0.066 | 0.0643 | 0.0867 | 0.0708 | – | 0.0644 | 0.0752 | 0.0773 | 0.104 | 0.0672 | 0.0658 | 0.0312 | 0.0506 | 0.0908 | 0.0585 | 0.0507 | 0.0638 | 0.0589 | – |
| L77H | 0.0579 | 0.0622 | 0.0592 | 0.0684 | 0.0701 | 0.0668 | 0.0665 | 0.0699 | 0.0654 | 0.0722 | 0.0656 | 0.0592 | 0.0643 | 0.067 | 0.0528 | 0.0665 | – | 0.036 | – |
| G28D | 0.0636 | 0.0583 | 0.0619 | 0.0795 | – | 0.0609 | 0.0832 | 0.0727 | 0.0602 | – | 0.0654 | 0.0497 | 0.0731 | 0.0753 | 0.0611 | – | 0.068 | 0.0688 | – |
